Data on 89 molecules can be found in PubChem BioAssay AID463173 (ICCB-Longwood Screening Facility, Harvard Medical School, 2010).

In all, about 52,000 compounds went through this assay and about 1,700 (3.3%) were called active. No stated cut-off is given here; in the data, active means survival mostly below about 52% (no sharp cut-off); inactive means mostly above about 56%. Some of the results follow.

The assay relates to Wild type. Briefly: S. aureus survival, RN4220 and DeltatarO strains – OD600, teichoic acid synthesis inhibitors, primary screen (AID 463173). As to conditions: S. aureus RN4220 wild type/DeltatarO growth, OD600, 18 h, stronger effect = lower value, screened at 18.75 µg/mL (by protocol).
`CCOC(=O)c1ccc(NC(=O)N2CCOc3ccccc32)cc1`: the survival was inactive: 85%.

`COC(=O)c1c(-c2cccs2)csc1NC(=O)COc1c(C)ccc(C)c1C`: the survival is inactive: 67%.

In the case of `CCOc1ccc(CCNC(=O)c2cnc3sc(N4CCC(C)CC4)nn3c2=O)cc1`, the survival was inactive: 77%.

In the case of `Cc1nn(-c2ccccc2)c(-c2ccccc2)c1C(=O)O`, the survival was inactive: 102%.

In the case of `CNC(=O)Cn1cc(S(=O)(=O)Cc2ccccc2F)c2ccccc21`, the survival is inactive: 66%.

With `CCOc1ccccc1NC(=O)N1CCc2cc(S(=O)(=O)N3CCC(C)CC3)ccc21`, the survival is inactive: 78%.

As to `Cc1nn(C(=O)c2ccccc2F)c(C)c1S(=O)(=O)N1CCCCCC1`, the survival is inactive: 70%.

Take `CCCCCSc1nc2sc3c(c2c(=O)n1-c1ccccc1)CCN(C(C)=O)C3`: the survival was inactive: 58%.

For the molecule `COc1ccc(-c2oc3ncn4nc(COc5c(C)cccc5C)nc4c3c2-c2ccc(OC)cc2)cc1`, the survival is inactive: 79%.

Turning to `C=CCN1C(=O)C(CC(=O)NCC)SC1=Nc1ccccc1OC` (centres undefined), the survival is inactive: 109%.

For the molecule `Cc1ccc(Cn2c(SCc3ccc(C(=O)N4CCCCCC4)cc3)nc3ccncc32)cc1`, the survival is inactive: 80%.

Consider `Cc1cccc(NC(=O)c2sc(-n3nc(C)c(Cc4ccc5c(c4)OCO5)c3C)nc2C)c1C`, for which the survival is inactive: 119%.

As to `COc1cc(OC)cc(N2C(=O)N(CC(=O)c3ccc(F)cc3)c3ccccc3S2(=O)=O)c1`, the survival was inactive: 93%.

In the case of `COc1ccc(CN2CCc3nc(SCC(=O)Nc4cc(C)cc(C)c4)[nH]c(=O)c3C2)cc1`, the survival is inactive: 81%.

Take `COc1ccc(-c2noc(Cn3c(=O)c4ccccc4n(CC(=O)Nc4cccc(OC)c4)c3=O)n2)cc1`: the survival is inactive: 82%.

In the case of `COc1ccc(-c2cc(C)no2)cc1S(=O)(=O)NC(C)C`, the survival is inactive: 84%.

Take `Cc1cc(C)c(C#N)c(SCC(=O)Nc2sc3c(c2C#N)CCC(C(C)(C)C)C3)n1` (centres undefined): the survival was inactive: 110%.

In the case of `CCCOC(=O)CSc1ncnc2sc3c(c12)CCC(C)C3` (centres undefined), the survival was active: 7%.

As to `Cc1ccc(NC(=O)CSc2ncc3c(n2)-c2ccc(Cl)cc2N(C)S3(=O)=O)cc1F`, the survival was inactive: 69%.

Regarding `Cn1nnnc1SCCCNCc1ccccc1OCc1ccccc1Cl`, the survival was inactive: 109%.

Turning to `COc1ccc(-c2noc(CSc3nnc(C)n3-c3ccc(OC)cc3)n2)cc1`, the survival is inactive: 85%.

Take `COc1ccccc1NC(=O)c1sc2nc(N3CCOCC3)c3c(c2c1N)CC(C)(C)OC3`: the survival is inactive: 64%.

For `Cc1c(Cl)cccc1NC1=NCC(=O)N1C1CCCC1`, the survival is inactive: 126%.

In the case of `Cc1cccc(Cn2c(=O)n(CC3CCC(C(=O)N4CCOCC4)CC3)c(=O)c3sccc32)c1` (centres undefined), the survival is inactive: 68%.

As for `COC(=O)/C=C1/N/C(=N/c2nc3ccccc3s2)NC1=O`, the survival was inactive: 88%.

On to `O=C(NCc1cccs1)c1ccc(Cn2c(SCc3cccc(F)c3)nc3cccnc32)cc1`, for which the survival was inactive: 49%.

As for `CCCCOC(=O)c1ccc(NC(=O)Cn2nnc3sc4c(c3c2=O)CCCC4)cc1`, the survival was inactive: 85%.

On to `CCOC(=O)c1c(NC(=O)c2cc3nc(-c4ccc(OC)cc4)cc(C(F)(F)F)n3n2)sc2c1CCC(C)C2` (centres undefined), for which the survival is inactive: 87%.

As for `CCc1cccc(NC(=O)C(Cc2ccccc2)NS(=O)(=O)c2ccc3c(c2)oc(=O)n3C)c1` (centres undefined), the survival was inactive: 131%.

For the molecule `COc1ccccc1-c1nc2c(c(SCC(=O)Nc3c(C)cc(C)cc3C)n1)Cc1c(CO)cnc(C)c1O2`, the survival was inactive: 85%.

Turning to `CCC(=O)N1CCc2cc(S(=O)(=O)CCC(=O)NCc3ccc(C)cc3)ccc21`, the survival is inactive: 83%.

On to `CCCN1C2CCCC1CC(NC(=O)c1ccc(F)cc1)C2` (centres undefined), for which the survival was inactive: 108%.

`O=C(O)C1Cc2c([nH]c3ccccc23)C(Cc2ccccc2)N1` (centres undefined): the survival was inactive: 117%.

Take `CCN1/C(=C2\C(=O)N(c3ccc(Cl)cc3)N=C2C)C=Cc2ccccc21`: the survival was inactive: 96%.

As to `CCOc1ccc(-c2cc(C(=O)N3CCN(S(=O)(=O)c4cc(Cl)ccc4OC)CC3)[nH]n2)cc1`, the survival was inactive: 45%.

As to `Cc1ccc(N2C(=O)N(CC(=O)C(C)(C)C)c3ccccc3S2(=O)=O)cc1C`, the survival is inactive: 119%.

For the molecule `CCc1cccc(NC(=O)c2cc3c(=O)n(Cc4ccc(OC)cc4)ccc3nc2C)c1`, the survival is inactive: 81%.

As to `CCCSc1nnc2c(n1)OC(c1sccc1C)Nc1ccccc1-2` (centres undefined), the survival was inactive: 92%.

Turning to `CCOc1ccc(CCNC(=O)c2ccc(Nc3nc4ccccc4n4nnnc34)cc2)cc1OCC`, the survival is inactive: 148%.

Take `CS(=O)(=O)n1c(=O)sc2ccccc21`: the survival is inactive: 121%.

Take `Cc1c(Cl)cccc1NC(=O)CN1C(=O)COc2ccc(S(=O)(=O)N3CCOCC3)cc21`: the survival is inactive: 95%.

`CCOC(=O)c1ccc(NC(=O)c2c(N3CCCC3=O)c3cc(OC)ccc3n2C)cc1`: the survival was inactive: 83%.

For the molecule `Cc1ccc(C)c(N2CCN(C(=O)Cn3ncc4ccsc4c3=O)CC2)c1`, the survival was inactive: 87%.

For `Cc1cc2oc(C(=O)N(Cc3ccccc3F)C3CCS(=O)(=O)C3)c(C)c2cc1Cl` (centres undefined), the survival is inactive: 71%.

Take `CCOc1ccc(C(=O)c2oc3ccccc3c2NC(=O)Cc2coc3cc(C)cc(C)c23)cc1`: the survival is inactive: 109%.

Turning to `CCc1ccc(Cn2c(CNS(=O)(=O)c3ccc(F)c(Cl)c3)nc3cccnc32)cc1`, the survival is active: -3%.

For the molecule `CC(=O)N1CCCC1c1nc2ccccc2n1Cc1ccccc1` (centres undefined), the survival is inactive: 87%.

For `Cc1ccc(C2CC(=O)Nc3cc4c(cc32)OCCO4)cc1` (centres undefined), the survival was inactive: 140%.

With `CC1=C(C(=O)OCC2CCCCC2)C(c2cccc(Cl)c2Cl)CC(=O)N1` (centres undefined), the survival was inactive: 76%.

As for `OCC1=CC[N+]2(Cc3ccccc3)CCC(O)C12` (centres undefined), the survival was inactive: 99%.

For the molecule `Cc1ccc(CNc2ncccc2-c2nc(-c3ccc(Cl)cc3)no2)cc1`, the survival is inactive: 87%.

On to `O=C(CCCn1c(=O)c2sccc2n(Cc2ccc(Cl)cc2)c1=O)NCc1ccc2c(c1)OCO2`, for which the survival was inactive: 87%.

In the case of `COc1ccccc1N1CCN(S(=O)(=O)CCNC(=O)COc2ccccc2F)CC1`, the survival is inactive: 89%.

For the molecule `Cc1scc(CN2CCN(c3ccc(F)cc3)CC2)c1C`, the survival is inactive: 87%.

As for `COC(=O)c1sccc1S(=O)(=O)N1CCN(c2ccc(Cl)cc2)CC1`, the survival was inactive: 59%.

Take `CCOC(=O)c1ccccc1NC(=O)c1cc2c(s1)-c1ccccc1SC2`: the survival was inactive: 41%.

With `CC1=C(c2ccc(Cl)cc2)S(=O)(=O)N=C1N1CCC(C(=O)NCCc2ccco2)CC1`, the survival is inactive: 55%.

In the case of `COc1ccc(Br)cc1CNC(=O)CCc1cn(Cc2ccc(C)cc2)c2ccccc12`, the survival was inactive: 84%.

With `Cc1ccc(-c2nc(S(=O)(=O)c3ccccc3)c(SCC(=O)NC3CCCCC3)o2)cc1`, the survival is inactive: 73%.

For `CC(C)c1ccc(NC(=O)CN2C(=O)CSc3ccc(S(=O)(=O)N4CCCC4)cc32)cc1`, the survival was inactive: 91%.

With `CC(C)CC(NC(=O)C1CCCCC1)C(=O)Nc1cccc(C(F)(F)F)c1` (centres undefined), the survival is inactive: 64%.

As to `Cc1ccc(Cl)cc1NC(=O)c1cc(CN2CCCC2)on1`, the survival was inactive: 78%.

On to `CCS(=O)(=O)N(CC(=O)Nc1sc(C)c(C)c1C(N)=O)Cc1ccc(F)cc1`, for which the survival is inactive: 100%.

Regarding `COc1ccc(CCNC(=O)CCc2cn(Cc3ccc(F)cc3)c3ccccc23)cc1OC`, the survival was inactive: 104%.

As for `Cc1ccc(Cl)cc1N1CCN(C(=O)c2nn(C)c3c2CS(=O)(=O)c2ccccc2-3)CC1`, the survival was inactive: 67%.

On to `CCc1ccc(NC(=O)c2ccc(NS(=O)(=O)c3c(C)noc3C)cc2)cc1`, for which the survival is inactive: 61%.

Consider `Cc1cccc(N2CCN(C(=O)c3cccn3-c3nnc(N4CCCCC4)s3)CC2)c1C`, for which the survival was inactive: 68%.

Turning to `O=C(NC1CC1)c1ccc(Cn2c(SCc3ccc(F)cc3)nc3cccnc32)cc1`, the survival is inactive: 73%.

Turning to `COc1ccc(-c2cc(C(F)(F)F)nc(SCCC(=O)Nc3cccc(OC)c3)n2)cc1`, the survival is inactive: 65%.

As to `CCc1cccc(C)c1NC(=O)c1cc(S(=O)(=O)N2CCCCCC2)cn1C`, the survival is inactive: 92%.

Turning to `CCCNc1ncnc2c1c(-c1ccccc1)cn2-c1ccc(OCC)cc1`, the survival was inactive: 102%.

For the molecule `COc1ccc(NC(=O)CCn2c(-c3ccc(F)cc3)cc(C(C)=O)c2C)c(OC)c1`, the survival was inactive: 135%.

`O=c1cc(CSc2ccccc2)[nH]c2ccc(F)cc12`: the survival is inactive: 72%.

For the molecule `O=C(COc1ccc(F)cc1)Nc1ccc(S(=O)(=O)N(Cc2ccccc2)c2ccccc2)cc1`, the survival is inactive: 115%.

On to `CCc1ccc(CNC(=O)c2sc3nc[nH]c(=O)c3c2C)cc1`, for which the survival is inactive: 105%.

On to `CCCOc1ccc(C(=O)Nc2ccc(-c3cc4ccccc4oc3=O)c(C)c2)cc1`, for which the survival is inactive: 85%.

Take `CCn1c(NC(C)=O)nc2ccccc21`: the survival is inactive: 108%.

For `COC(=O)CSc1nnc(CNc2ccc(Cl)cc2)n1Cc1ccccc1`, the survival is inactive: 115%.

Consider `Cc1ccc(NC(=O)c2c(C)oc3ccc(O)c(CN(C)Cc4ccccc4)c23)c(C)c1`, for which the survival is inactive: 82%.

As to `CCc1ccc(Nc2nnc(-c3cc4cc(OC)ccc4oc3=O)s2)cc1`, the survival was inactive: 138%.

Take `CCN(C(=O)Cc1c(C(=O)O)c(C)cn1C)c1cccc(Cl)c1`: the survival is inactive: 72%.

In the case of `CCc1c(C)nc(SCc2nc(-c3ccccc3C)no2)[nH]c1=O`, the survival was inactive: 77%.

For `COc1ccc(OC)c(CNc2ncnc3c2nc2n3CCCC2)c1`, the survival is inactive: 68%.

As for `CCCn1nnc(NC(=O)Cc2ccccc2)n1`, the survival was inactive: 107%.

With `COc1cc(NC(=O)C(NS(=O)(=O)c2ccc3c(c2)CCCC(=O)N3)C(C)C)cc(OC)c1` (centres undefined), the survival was inactive: 78%.

As for `CCOc1ccc2nc(NCCNC(=O)Nc3cccc(Cl)c3)c(C#N)cc2c1`, the survival was inactive: 108%.

With `Cc1ccc(NC(=O)c2sc3nc(-c4ccncc4)ccc3c2N)cc1`, the survival was inactive: 157%.

For the molecule `CCOc1ccc(S(=O)(=O)c2c(C(=O)c3ccc(C)c(C)c3)cnc3ccccc23)cc1`, the survival was inactive: 80%.

As to `Cc1ccc(CNC(=O)CCc2nnc3n(C)c(=O)c4sccc4n23)cc1`, the survival was inactive: 65%.
